The supplement of paper PMC11417369
This is one part of the list.

tested on: PfHDP1 homeodomain (GST-tagged); assay: gcPBM binding intensity (ln(normalized median fluorescence intensity)); higher = stronger DNA binding
Procedure, shortened: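 Binding of GST-tagged P. falciparum DNA-binding domains, expressed in E. coli and used at about 25 μg on average, was carried out for 1 h in 1× PBS containing 1% milk, 0.2 mg/ml BSA, 0.5% salmon testes DNA and 0.03% Triton X-100. The target was an Agilent 4 × 180k array of primer-extended double-stranded 36-bp intergenic genomic probes plus negative controls, read with Alexa488 anti-GST antibody at 488 nm. Binding intensity is the highest Masliner-normalised natural-log median intensity across replicate spots of either probe orientation.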

Sequence | gcPBM binding intensity (ln)
TTCTTTAAAATGATATACGTTATAAATATATATATA [XGTACX_negctrl_site256] | 8.24
TATATATAATATAGTGCATGTAAAAAATAAACCATG [TGCATGCA_site932] | 7.52
TATATATATGGACACACACACATATATATATATTTT [CACACA_site5409] | 6.75
AAAATTAATATCTTGGTGCATTTTTTAATATTATTA [GTGCAC_site9638] | 9.54
ACAACTATTCATCATAGTACACGCATGATATATATA [XGTACX_site1539] | 6.42
TATCTTACTTTTTGCACACACTAATATTATTGTTTA [CACACA_site4990] | 11.1
TATAAATTAAAACATTGTACATTTTTATTATTATGT [XGTACX_site579] | 6.2
CAATTTATAAAGAAAACACACATATACATAAATACA [CACACA_site4829] | 6.93
AAAATTTCTTATTTTGTACACACAATAAATATTCAC [CACACA_site8464] | 6.42
TTTTTGTTATTTTTAGTGCAGAAGAATAAATTTTAA | 7.57
GCAACCTTGTGCAAATGTACAAAAAAAAAAAAAAAA [XGTACX_site679] | 10.3
TTTTTATTGTTGCTATATTTATAACAATTTATCATA [GTGCAC_negctrl_site75] | 6.6
AAAAAAAAAATATATTGTACAATATTGTAGCTATAT [XGTACX_site7180] | 6.52
TTCAATAGTAAGTATACACACATATAAATAAATAAA [CACACA_site7295] | 6.91
AAAATTTGAAAAAGGGGTACTTAATAAAAGTTTCAT [XGTACX_site932] | 6.1
TTACACAAGGATAAAAACATATGTATGATTATATAT [CACACA_negctrl_site654] | 6.7
ATACTGTATAGTCGCACACAAAAATATAAAATATTT [CACACA_site6004] | 6.65
CTACATATGTATAATATGCACACGTCATTTTCCCCT [CACACA_site2107] | 9.15
AATTATCAGGAATGATGTACTGAAATAAAAAAAAAA [XGTACX_site3280] | 6.19
CACAGACACCCATACACACACATACCCATATATATA [CACACA_site5023] | 7.23
ATTTTATTTAAATACACACACATATATATATTATAT [CACACA_site4607] | 7.14
AAAAAAAAAAAAAAAGCACACATCATATTTTAATTC [CACACA_site9109] | 6.5

Sequence | gcPBM binding intensity (ln)
ACACAAAAATGAAAAATGAAAAGGGTAATATATATA [CACACA_negctrl_site1490] | 7.18
AATAGAAATTATATAAACATAAATGAATAAATAAAT [CACACA_negctrl_site1817] | 6.01
ACCATATATTAAAAAGTGCATTAAATATATAAATAT [GTGCAC_site9443] | 8.38
AGTATTATTTACTGCGCATGCTATTTATATATATTA [TGCATGCA_site876] | 6.83
AATTAAATGGATAAATGTACATATGTGAATATATTT [XGTACX_site84] | 6.94
TTTTTCTTTGAATAAATACACACGAGAAATGAAAGT [CACACA_site1688] | 7.23
AAAAGGAGCAAATACAAAAAAATGAACAAAAAAAAA [CACACA_negctrl_site716] | 6.64
TTTTGTAATGCTTTTTTTTTTTTTTTTTTTTTTTTT [CACACA_negctrl_site932] | 7.22
CATACCTATAGACACACACACACACGCACGCACAAA [CACACA_site6374] | 7.6
ACATAGATCATAGGTTGTACGAAGGTATCCTTTATT [XGTACX_site694] | 6.18
TCATATATATATATATGTACATATTTATGTATGTAT [XGTACX_site6291] | 6.43
ACTTTTTGAATGTTTGCACACAAATCTCATAATTTT [CACACA_site358] | 10.3
ATAATTAACAAATACACACACACACCCAGACAAAAA [CACACA_site4445] | 7.14
TGTGTATATATAAATACACACCAAATGTTAATATAT [CACACA_site8501] | 6.66
AACAATTAGAATAACGCATGCATTTATAATATAGAA [TGCATGCA_site595] | 6.67
TTAAAAGAAAATAGGTGTACACATAATATATACATA [XGTACX_site7697] | 6.8
AAAATATTAAATATGTGTACATATAATAGTTCAATG [XGTACX_site5957] | 6.41
AAACAAATAAAAATATGTACACATTTTTTCATTATG [XGTACX_site5449] | 6.35
AATATGTCTTAAAAAAGTACATAAATTTTAACTTCA [XGTACX_site6670] | 5.6
TTTTTAATCATAATATGTACATATAAAAATGGTTTG [XGTACX_site3996] | 6.47
TAATAAATCAAATGCACACACACAAAAAAAAAAAAA [CACACA_site161] | 10
TTTTTATTTTTTTATGCATGTGATGAAACGTGCCTA [TGCATGCA_site141] | 7.89

Sequence | gcPBM binding intensity (ln)
AGAATATATAAGTATACACACATATATATATATATA [CACACA_site201] | 9.34
ATATCGAAAATTTGGTGTACATTTTTATTTGTTCAA [XGTACX_site3094] | 6.53
TTATAAATATTCACTGTGCACTGATGGAATATAAAT [GTGCAC_site9739] | 10
TATAAAATAATTAAATGTACATAATATATAAAATAT [XGTACX_site6777] | 6.69
GATATTACGTGTTTGGTATTTTTTGATGTTAATAGG [CACACA_negctrl_site105] | 6.97
ATTAATTAAAATAGTTGTACAATCAAAAAAACAAAA [XGTACX_site7660] | 7.47
AACAAAGAGAAATAAACACACACAAAATAAAGAAAA [CACACA_site8704] | 7.01
TTTTTGTATGCTTCCCGACTACATTATGTCGTAAAT [GTGCAC_negctrl_site164] | 6.68
AGTTCATATTTAAAAAGTACATATTTAAAAACTTCT [XGTACX_site4882] | 6.16
TTTGAACTTTTATATACACACATTATTATAGTATAG [CACACA_site6851] | 6.71
AAAAAAAAAAAAAAATGTACTTTTATTATTAATATA [XGTACX_site6357] | 6.23
ATGCATATATTTATGTGTACATATATTTGTAGGGGG [XGTACX_site6063] | 8.07
ATATCGTTTTTAAATTGTACATTCACTATAGAATAA [XGTACX_site6442] | 6.87
TTTATTTTTCATTGGGGTACACAAGTTTATTTTTGA [XGTACX_site4262] | 7.03
TTCTTTGTTTTTTTTTTTTTTTTAAAAGATAATATT [XGTACX_negctrl_site381] | 6.38
TATATCGCCTTCAAAAGTACTCATATAAAAAAAAAA [XGTACX_site7123] | 6.14
ATTTTTTCTTTTCGATGTACCCTTCTTATTCTTTAT [XGTACX_site3782] | 7.45
ATATATTTATTTTGTGCACACAACGCAAACCTTTTA [CACACA_site3508] | 11.3
TTTTTTTTATTATAAATATATATATTATAAAACGAA [XGTACX_negctrl_site189] | 6.72
ACCCAAGAGAAAAGAGAAAGAAATATGTGTATATTG [GTGCAC_negctrl_site214] | 6.86
AAAAAAAACAGACACACACACACATATACATACATA [CACACA_site2665] | 6.77
TTATAGTAATAATAATGTACATTTATACACATATAT [XGTACX_site1965] | 6.76

Sequence | gcPBM binding intensity (ln)
ATATATATATATATAACATGCAAAGTTCAAAAAAAA [TGCATGCA_site943] | 9.14
AAATTAAAAATAATTACACACATAGAAAAGTTATAT [CACACA_site7137] | 6.44
TTTTCAGAAAGACATGCATACAAAAATAAAAAAGAT [TGCATGCA_site814] | 7.38
TTTTGCAAATATTACTGTACACAATCTCATATAATT [XGTACX_site2584] | 8.7
TCAAAAAAAATTTTAGTGCATATTTTAGTCAAAACA | 8.93
CATTCTACAATAAAAAGTACATATATATATTATATA [XGTACX_site921] | 6.61
AAATTAAATGATAGAGCATGCGCTAAAAATGAGAAA [TGCATGCA_site937] | 7.66
TTTTTATAACATAAAAGTACATATTTTTAATTTAAT [XGTACX_site4394] | 5.95
ACACATATAATAGTTACATGCAAAAATACTTTTATT [TGCATGCA_site785] | 6.55
ATTTAAATAATATGTACACACATTTAAAAAGTTATA [CACACA_site7347] | 6.48
TAATATTTCGTTAAGTTTTAAAGAAAAAAAAAAAAA [CACACA_negctrl_site1253] | 5.9
ATATGTATAAAAATCCGTACATAAGTGTGCGTATAT [XGTACX_site4376] | 8.39
ATAAATAATATGTAAACACACAAAAAATAAAAATGA [CACACA_site1178] | 6.74
ATGTTTGAGCCTAAGGTGCATATAAAAATATATGTG [GTGCAC_site9690] | 9.09
TACTAAGAAGTATTTACACACCAACAAGGCGAAAAA [CACACA_site2944] | 6.3
ACATATATATATATATATATATATATATATAGATAG [CACACA_negctrl_site783] | 7.64
ATAAAGAAATTACACACATGCAATGAAAAAAAAAAA [TGCATGCA_site406] | 6.25
CTTTTTACTTAATACACACACACACTAAAAAAAAAA [CACACA_site6574] | 7.19
ACAAAAAAATATTTATGTACTTATTATATTTATAAT [XGTACX_site2059] | 6.1
AAAACTAAATGTTATTCGCACACGGAATTTATTTAA [CACACA_site9221] | 6.46
ATATATATTATATATGCATGCCAAATCTTTATAAAC [TGCATGCA_site1042] | 6.81
ATTCCAGAAATATATTAACAAGGAAAATATAAAAAT [CACACA_negctrl_site343] | 6.46
